# From the RNAGym collection of RNA variant scans (doi:10.1073/pnas.2313332121)
# Variants at the background level are over-represented here.
# B1: TPR 5TU (parent)
# chain: GGAUCUUCUCGAUCUAACAAAAAAGACAAAUCUGCCACAAAGCUUGAGAGCAUCUUCGGAUGCAGAGGCGGCAGCCUUCGGUGGCGCGAUAGCGCCAACGUUCUCAACUAUGACACGCAAAACGCGUGCUCCGUUGAAUGGAGUUUAUCAUG
# Variants of: B1
# Assay: polymerase ribozyme fitness, log enrichment relative to wild type (log ratio); higher = more active; in vitro selection for triplet polymerase activity
# Outline: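 PCR was used to build mutant libraries for each subunit of a heterodimeric triplet polymerase ribozyme, which were then transcribed. A single in vitro selection round, in triplicate, used a frozen incubation at −7 °C and recovered extended constructs by gel excision, streptavidin beads and RT-PCR. Fitness is the logarithm of genotype enrichment relative to wild-type enrichment, averaged over replicates with inverse-variance weights. The logarithm is base 2, and after Illumina sequencing only genotypes with ≥10 input reads and ≥1 read per output were kept.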
row,Variant,polymerase ribozyme fitness (log ratio)
1,G65C G67C A98G G140C A147C C149G,≤ -4.2
2,G65C G68A G80A G84U C87G U139C,≤ -4.2
3,G65C G80A C96A A150C,≤ -4.2
4,G65C G81C,≤ -4.2
5,G65U A73G G141A,≤ -4.2
6,G65U C72A C96G A97U,≤ -4.2
7,G65U G68U G81U C95A C99G C105U,≤ -4.2
8,G65U U127A G141U U145G,≤ -4.2
9,A66C A91G,≤ -4.2
10,A66C A97U A147G,≤ -4.2
11,A66C C75G G86U C123A,≤ -4.2
12,A66C C76U U82G C85G C125G,≤ -4.2
13,A66C C85G A98U U101G G143U,≤ -4.2
14,A66C C85G G141A U146C,≤ -4.2
15,A66C C87A G124C U134A G136A U139G,≤ -4.2
16,A66C C87A G141U A142G,≤ -4.2
17,A66C C131A A137U,≤ -4.2
18,A66C G67A A115C G126U U139G,≤ -4.2
19,A66C G71A A73G G83C U151A,≤ -4.2
20,A66C G71C G84U,≤ -4.2
21,A66C G74U C85G G86U A107C U146G,≤ -4.2

row,Variant,polymerase ribozyme fitness (log ratio)
1,A66C G86U C93U C108U G128U,≤ -4.2
2,A66C G86U C118A A137U,≤ -4.2
3,A66C G92A G128A U130G,≤ -4.2
4,A66C G92C C96G A120G,-4.14
5,A66C G92U C132G U139G,≤ -4.2
6,A66C G92U G100U A115U A119C G133U,≤ -4.2
7,A66C G100U U102A,≤ -4.2
8,A66C U77C C99U C108U,≤ -4.2
9,A66G A106G U139A,≤ -4.2
10,A66G C85U G100U G112C U146C,≤ -4.2
11,A66G C85U U111G U146A,≤ -4.2
12,A66G C87A C103A,≤ -4.2
13,A66G C123G,≤ -4.2
14,A66G C125G U146A,≤ -4.2
15,A66G G68C U102A,≤ -4.2
16,A66G G88C,≤ -4.2
17,A66G G128A G133U,≤ -4.2
18,A66G G133U U145A,≤ -4.2
19,A66U A73G C76U G88C G92U G133U U151C G152U,≤ -4.2
20,A66U A106C G117U,≤ -4.2
21,A66U C69A,≤ -4.2

row,Variant,polymerase ribozyme fitness (log ratio)
1,A66U C76A C87A G140U C149U,≤ -4.2
2,A66U C87A A106U G143C,≤ -4.2
3,A66U G83U G133A A138U U146A,≤ -4.2
4,A66U U127C,≤ -4.2
5,G67A,-3.22
6,G67A A73C G94C C114A,≤ -4.2
7,G67A A91G U135G C149U,≤ -4.2
8,G67A C72A A142U,≤ -4.2
9,G67A C85A G88C G100C,≤ -4.2
10,G67A C85A U104G A138U,≤ -4.2
11,G67A C87U G92A G100A,≤ -4.2
12,G67A C96A,-3.46
13,G67A C96G U104G,≤ -4.2
14,G67A G68C A142G U145G,≤ -4.2
15,G67A G81A A91C A137C U148C,≤ -4.2
16,G67A G84U,≤ -4.2
17,G67A G84U C105U G133A A150C,≤ -4.2
18,G67A G86A G88C A106C G143A A150U,≤ -4.2
19,G67A U77G A98G U144A,≤ -4.2
20,G67A U78A C87U A106U,≤ -4.2
21,G67A U151C,≤ -4.2

row,Variant,polymerase ribozyme fitness (log ratio)
1,G67C,-3.97
2,G67C A91U C93A C105U G128U G152U,≤ -4.2
3,G67C A97C C103G C125U C129U A142U G143C A150U,≤ -4.2
4,G67C C75U G84A C132U G136U U151A,≤ -4.2
5,G67C C76U C96U C149U,≤ -4.2
6,G67C C79G U127C C129U,≤ -4.2
7,G67C C85U A119C U146G,≤ -4.2
8,G67C C87U G152U,≤ -4.2
9,G67C C93G C118G A150C,≤ -4.2
10,G67C G68A G83A U90A G117A,≤ -4.2
11,G67C G70A G83C G84U,≤ -4.2
12,G67C G86C C114U A122U G124A G143A U145A,≤ -4.2
13,G67C G86U C105G C132G U145G,≤ -4.2
14,G67C U77A U90G C95U U144C,≤ -4.2
15,G67C U130C A138G,≤ -4.2
16,G67U,-2.55
17,G67U G70A U130C U145G,≤ -4.2
18,G67U G83U G117U A119U,≤ -4.2
19,G67U G83U U101G,≤ -4.2
20,G68A A91C A120G A147C,≤ -4.2
